Substitutions are numbered along the chain they refer to. No constants are given. Whether binding was seen depends on the method and setting. For some of these results: In cells and extracts the contact can be indirect. Some binding calls cover weakened binding; strength is not graded here. For some of these results: Where a sequence is shown, tags or fusion partners need not be part of it.

Sequences of proteins named here, by UniProt entry; tags and fusion partners are left off.
UniProt O14994: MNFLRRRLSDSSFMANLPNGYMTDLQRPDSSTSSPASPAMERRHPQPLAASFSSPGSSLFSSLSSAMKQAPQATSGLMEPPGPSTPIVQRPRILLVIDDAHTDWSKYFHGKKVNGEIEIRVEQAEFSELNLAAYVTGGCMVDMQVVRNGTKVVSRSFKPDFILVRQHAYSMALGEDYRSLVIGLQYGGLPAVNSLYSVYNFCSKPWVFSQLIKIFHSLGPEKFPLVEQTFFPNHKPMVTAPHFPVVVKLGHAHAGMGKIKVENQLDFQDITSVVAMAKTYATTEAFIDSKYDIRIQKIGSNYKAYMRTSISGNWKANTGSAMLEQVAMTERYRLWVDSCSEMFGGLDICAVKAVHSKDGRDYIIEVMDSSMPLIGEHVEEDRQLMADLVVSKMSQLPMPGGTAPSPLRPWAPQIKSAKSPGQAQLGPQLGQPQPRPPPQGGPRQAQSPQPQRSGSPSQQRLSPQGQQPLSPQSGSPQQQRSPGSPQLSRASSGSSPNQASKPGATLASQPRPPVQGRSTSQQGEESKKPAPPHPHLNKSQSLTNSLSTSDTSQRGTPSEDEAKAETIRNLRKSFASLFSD
UniProt Q8JZP2: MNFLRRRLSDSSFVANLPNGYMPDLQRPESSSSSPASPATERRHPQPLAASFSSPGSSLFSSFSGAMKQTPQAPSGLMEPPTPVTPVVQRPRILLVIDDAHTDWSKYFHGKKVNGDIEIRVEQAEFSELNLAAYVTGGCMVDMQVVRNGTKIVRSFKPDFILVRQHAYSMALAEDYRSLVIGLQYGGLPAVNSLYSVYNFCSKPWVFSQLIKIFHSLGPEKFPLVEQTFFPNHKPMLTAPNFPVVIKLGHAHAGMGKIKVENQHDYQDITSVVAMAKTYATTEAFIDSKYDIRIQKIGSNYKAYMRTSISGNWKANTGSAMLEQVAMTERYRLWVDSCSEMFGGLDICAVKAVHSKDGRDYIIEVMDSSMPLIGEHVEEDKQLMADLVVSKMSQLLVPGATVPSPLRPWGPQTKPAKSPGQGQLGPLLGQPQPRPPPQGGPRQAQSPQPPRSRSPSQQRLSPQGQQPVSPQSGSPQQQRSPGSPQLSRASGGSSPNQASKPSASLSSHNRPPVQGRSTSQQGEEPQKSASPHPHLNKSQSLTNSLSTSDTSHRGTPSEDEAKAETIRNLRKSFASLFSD
UniProt O70441: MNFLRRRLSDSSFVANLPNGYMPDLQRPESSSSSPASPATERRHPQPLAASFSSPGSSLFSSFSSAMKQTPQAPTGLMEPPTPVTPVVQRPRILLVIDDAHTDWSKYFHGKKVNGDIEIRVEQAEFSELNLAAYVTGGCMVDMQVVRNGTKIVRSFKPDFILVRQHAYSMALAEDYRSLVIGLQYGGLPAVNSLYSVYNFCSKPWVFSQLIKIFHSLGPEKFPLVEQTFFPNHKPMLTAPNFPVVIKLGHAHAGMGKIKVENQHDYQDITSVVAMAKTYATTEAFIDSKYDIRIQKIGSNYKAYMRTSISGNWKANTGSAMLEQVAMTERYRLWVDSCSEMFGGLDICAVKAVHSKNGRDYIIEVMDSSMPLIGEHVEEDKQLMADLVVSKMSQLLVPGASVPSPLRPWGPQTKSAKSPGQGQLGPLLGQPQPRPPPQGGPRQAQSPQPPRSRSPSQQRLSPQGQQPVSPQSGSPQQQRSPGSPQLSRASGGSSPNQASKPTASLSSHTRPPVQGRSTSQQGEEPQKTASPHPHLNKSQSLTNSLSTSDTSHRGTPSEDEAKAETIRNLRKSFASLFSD

The target in experiment [1] is T1, Myc-tagged C9orf72L (human) (UniProt Q96LT7).
T1 sequence: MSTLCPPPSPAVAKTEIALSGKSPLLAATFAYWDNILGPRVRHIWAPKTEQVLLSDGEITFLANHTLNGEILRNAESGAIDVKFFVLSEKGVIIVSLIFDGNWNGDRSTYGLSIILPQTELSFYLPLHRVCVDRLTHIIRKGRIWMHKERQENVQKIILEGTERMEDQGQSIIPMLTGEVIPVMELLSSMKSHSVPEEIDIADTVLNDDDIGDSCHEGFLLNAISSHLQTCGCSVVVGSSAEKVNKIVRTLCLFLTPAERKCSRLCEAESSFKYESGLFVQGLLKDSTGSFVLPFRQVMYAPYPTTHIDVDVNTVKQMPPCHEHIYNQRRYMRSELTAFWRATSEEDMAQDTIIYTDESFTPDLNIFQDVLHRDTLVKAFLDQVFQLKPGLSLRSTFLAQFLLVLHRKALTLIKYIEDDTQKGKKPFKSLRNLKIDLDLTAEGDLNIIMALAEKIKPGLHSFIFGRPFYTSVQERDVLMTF
The experiment in a line: proximity ligation; HEK293 co-transfected (laced with EGFP), fixed; anti-V5 and anti-Myc antibodies; Duolink In Situ Kit; PLA intensity per cell as corrected total cell fluorescence.

For experiment [2], the target named is T2, Myc-C9orf72S (human) (UniProt Q96LT7).
T2 sequence: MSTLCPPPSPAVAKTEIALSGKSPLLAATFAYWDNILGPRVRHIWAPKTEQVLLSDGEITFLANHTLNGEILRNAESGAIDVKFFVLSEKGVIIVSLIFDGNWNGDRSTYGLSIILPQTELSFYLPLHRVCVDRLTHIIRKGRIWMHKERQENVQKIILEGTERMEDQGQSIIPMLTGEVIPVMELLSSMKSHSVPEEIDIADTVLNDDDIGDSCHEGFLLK
The experiment in a line: co-IP; HEK293 co-transfected; lysis in modified BRB80 buffer (80 mM PIPES pH 6.8, 150 mM NaCl, 1% NP-40); immunoprecipitation with anti-Myc antibody and Protein G Sepharose, 4 °C; immunoblot for Myc/C9orf72 and V5. (A western blot detects proteins with antibodies after separation by electrophoresis.)

The target in experiment [3] is T3, Myc-C9orf72ΔLGN (AA 205–481) (human) (UniProt Q96LT7).
T3 sequence: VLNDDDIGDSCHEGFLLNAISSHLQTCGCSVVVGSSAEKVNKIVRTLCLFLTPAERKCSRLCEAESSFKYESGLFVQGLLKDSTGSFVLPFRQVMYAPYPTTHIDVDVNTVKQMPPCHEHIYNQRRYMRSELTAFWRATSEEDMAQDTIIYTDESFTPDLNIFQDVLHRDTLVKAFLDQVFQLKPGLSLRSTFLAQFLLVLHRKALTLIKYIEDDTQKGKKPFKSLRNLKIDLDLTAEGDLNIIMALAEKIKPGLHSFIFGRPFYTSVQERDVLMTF
Described as above.

In experiment [4] the target is T1, Myc-tagged C9orf72L (human). Described as above.
Experiment [5] has as its target T4, endogenous C9orf72 (mouse brain synaptosomes) (mouse (endogenous in mouse brain synaptosomes)) (UniProt Q6DFW0).
T4 sequence: T1 sequence with L4I, K22E, E50D, I158V, S188A, E198D, S287A, Q386H, V404I
The experiment in a line: co-IP; endogenous proteins; crude synaptosomal fraction (P2') of 12-week-old mouse brains solubilised in 80 mM PIPES pH 6.8, 1% NP-40, IP with 50 mM NaCl, 4 µg anti-C9orf72 antibody 16 h at 4 °C, Protein G Mag Sepharose; controls: irrelevant antibody and C9orf72-KO synaptosomes.

The target in experiment [6] is T5, endogenous C9orf72 (rat hippocampal neurons) (rat (endogenous in primary hippocampal neurons)) (UniProt Q66HC3).
T5 sequence: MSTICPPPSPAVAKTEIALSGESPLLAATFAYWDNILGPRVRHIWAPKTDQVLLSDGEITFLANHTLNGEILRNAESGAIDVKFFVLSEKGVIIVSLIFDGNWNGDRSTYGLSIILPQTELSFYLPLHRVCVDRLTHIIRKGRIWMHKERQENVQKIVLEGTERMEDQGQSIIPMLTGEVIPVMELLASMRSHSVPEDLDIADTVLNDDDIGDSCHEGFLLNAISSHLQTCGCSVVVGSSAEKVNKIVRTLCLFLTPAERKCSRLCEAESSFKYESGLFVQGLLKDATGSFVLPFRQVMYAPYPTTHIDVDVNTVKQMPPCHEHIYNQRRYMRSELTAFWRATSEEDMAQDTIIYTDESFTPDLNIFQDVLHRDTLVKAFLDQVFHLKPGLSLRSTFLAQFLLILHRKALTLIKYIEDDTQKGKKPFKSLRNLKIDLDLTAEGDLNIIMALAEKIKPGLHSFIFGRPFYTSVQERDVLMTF
As to the kind of experiment: proximity ligation; endogenous proteins in 12DIV primary rat hippocampal neurons, fixed; antibody pairs C9orf72/Syn3 or C9orf72/Syn1 with synaptophysin co-stain; Duolink In Situ Kit; spots per image normalised to synaptophysin intensity.

The target in experiment [7] is T6, Human C9orf72L fused to the DNA binding domain of GAL4 (bait) (human) (UniProt Q96LT7).
T6 sequence: T1 sequence
The experiment in a line: two-hybrid; C9orf72L fused to the GAL4 DNA binding domain (pGBKT7) as bait; screen of an arrayed human brain full-length ORF cDNA library of approximately 15,000 clones.

On to “V5-tagged Syn1a (from UniProt P09951 1-704)”, for which, in experiment [1], the binding result is “binds”.

In the case of “V5-tagged Synapsin-3a (from UniProt O14994 1-580)”, the binding entry is given as “binds” in experiment [1], “binds” in experiment [2], “no binding” in experiment [3] and “binds” in experiment [4]. On to “endogenous Syn1 (mouse brain synaptosomes) (from UniProt O88935 1-706)”, for which, in experiment [5], the binding result is “binds”.

Take “endogenous Syn1 (rat hippocampal neurons) (from UniProt P09951 1-704)”: the binding result in experiment [6] is given as “binds”. As to “endogenous Syn3 (mouse brain synaptosomes) (from UniProt Q8JZP2 1-579)”, the binding entry in experiment [5] is given as “binds”. Regarding “endogenous Syn3 (rat hippocampal neurons) (from UniProt O70441 1-579)”, in experiment [6], the binding entry is reported as “binds”. In the case of “full-length synapsin-3 (two-hybrid library clone) (from UniProt O14994 1-580)”, the binding entry in experiment [7] is listed as “binds”.

(Values after article PMC9381633.)
